PubChem BioAssay AID504466 (National Center for Advancing Translational Sciences (NCATS), 2011)
Hit rate of the full screen: of about 330,000 compounds, about 4,200 (1.3%) were called active. The shares of active, inactive and inconclusive entries below differ from those in the screen. Calls follow the shape of the dose curve; as a rule, active = well fitted activation curve with a large enough effect; inconclusive = small, poorly fitted or top-dose-only effect; inactive = no such curve, though single readings can be large or run the other way. Potencies beside an inconclusive call are fits to weak or partial responses and may not hold up.

assay: qHTS screen for small molecules that induce genotoxicity in human embryonic kidney (HEK293T) cells expressing luciferase-tagged ELG1; settings: HEK293T ELG1-luciferase reporter, luminescence, 16 h; series mostly up to 46 µM; activity change, positive = activation: at the top concentration; also: nearly all actives have a fitted effect of over 60% in size; as to activity change, positive = activation: % of control where 0% means no effect
Procedure, shortened: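 Quantitative HTS format in 1536-well plates. HEK293T ELG1-luciferase reporter cells receive test compound and are incubated 16 hr at 37 °C, 5% CO2; ONE-Glo added, 30 min room temperature, then luminescence read.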
Potency is read from the fitted curve at half-maximal effect; tags tell the direction and shape of the fitted curve.

SMILES	Potency	activity change, positive = activation
Cc1c(NC(=S)NC(=O)c2sc3ccccc3c2Cl)cccc1C(=O)O	inconclusive: 0.0651 µM [activator, full curve, poor fit]	–
Nc1c(C(=O)Nc2nc3ccccc3s2)sc2nc(-c3cccs3)ccc12	inconclusive: 2.59 µM [activator, partial curve, poor fit]	–
Cc1nc2ccc(NC(=O)Cc3cccs3)cc2s1	inconclusive: 8.2 µM [activator, partial curve]	–
CCOC(=O)C1=C(O)/C(=C/c2cn(CC(=O)N3CCCC3)c3ccccc23)SC1=Nc1ccccc1	–	inactive: 2.81%
CCN(CC)S(=O)(=O)c1cccc(C(=O)N/N=C(\C)c2cccs2)c1	inconclusive: 4.11 µM [activator, full curve, poor fit]	–
Cc1c(NS(=O)(=O)c2ccc(C(=O)NCc3ccccc3)cc2)c(=O)n(-c2ccccc2)n1C	–	inactive: -3.07%
Cc1ccccc1N1CCN(Cc2cccc(C(=O)O)c2)CC1	–	inactive: 1.12%
CCCC(=O)c1ccc(N2CCN(C(=O)OCC)CC2)c(F)c1	–	inactive: 0.824%
COc1ccc(C2=NN(C3=NN=C(N)Cc4ncnn43)C(O)(C(F)(F)F)C2)cc1 (centres undefined)	–	inactive: -0.181%
Clc1ccc(-c2csc(N3CCOCC3)n2)cc1	inconclusive: 3.26 µM [activator, single point]	–
Cc1ccc(NC(=O)C2CC2c2ccccc2)c([N+](=O)[O-])c1 (centres undefined)	inconclusive: 10 µM [activator, single point]	–
Cc1csc(NC(=O)c2cc3c(s2)CCCC3)n1	inconclusive: 0.291 µM [activator, full curve]	–
COc1ccc(S(=O)(=O)Nc2ccc(Cl)cn2)c(C)c1C	–	inactive: -7.12%
Cc1ccc(-c2cc(C(=O)N3CCCc4ccccc43)no2)cc1	inconclusive: 16.4 µM [activator, partial curve, poor fit]	–
Oc1c(C=Nc2cccnc2)sc2ccccc12	inconclusive: 14.6 µM [activator, partial curve]	–
Oc1ccc(/C=N/Nc2ccnc3cc(Cl)ccc23)cc1O	inconclusive: 20.6 µM [activator, partial curve, poor fit]	–
Cc1ccnc(NC(=O)Nc2cccc(F)c2)n1	inconclusive: 8.2 µM [activator, partial curve]	–
O=C(NCCc1ccc(Cl)cc1)Nc1cccc(Cl)c1	–	inactive: -10.8%
O=C(NCc1cccs1)c1noc2c1CCCCC2	active: 18.4 µM	–
Cc1ccc(C(=O)Nc2ccc(N3CCCCC3)cc2)cc1	inconclusive: 2.91 µM [activator, full curve]	–
NC(=O)c1cc(Cl)ccc1OCC(=O)NC1CC1	–	inactive: -0.251%
Cc1cc(C)n(-c2cc(N3CCN(C(=O)c4ccc(C(C)(C)C)cc4)CC3)ccc2[N+](=O)[O-])n1	–	inactive: -5.66%
Cc1ccc(C(=O)Nc2ccc3c(c2)OCCO3)c(C)c1	inconclusive: 0.447 µM [activator, partial curve, poor fit]	–
O=C(Nc1nnc(-c2cccnc2)o1)c1ccccc1Cl	–	inactive: 2.68%
Cn1c(/C=C/c2ccc(Cl)cc2)nc2ccccc2c1=O	inconclusive: 20.6 µM [activator, single point]	–

SMILES	Potency	activity change, positive = activation
CCCSc1nc2sc3c(c2c(=O)n1-c1ccc(OC)cc1)CCN(C)C3	–	inactive: -9.85%
CCN(C(=O)COc1ncnc2scc(-c3ccc(F)cc3)c12)C1CCS(=O)(=O)C1 (centres undefined)	active: 18.4 µM	–
CCCNC(=O)C1CC(=O)N(c2ccc(OCc3ccc(F)cc3)cc2)C1 (centres undefined)	active: 6.51 µM	–
O=C(COc1ccc2ccccc2c1)Nc1cccnc1Cl	inconclusive: 13 µM [activator, partial curve, poor fit]	–
COc1ccc(C(=O)Nc2c(N)nc(SCC(=O)Nc3ccc(C(C)=O)cc3)[nH]c2=O)cc1	inconclusive: 25.9 µM [activator, single point]	–
CC(=O)c1cccc(NC(=O)/C=C/c2ccc([N+](=O)[O-])s2)c1	active: 2.91 µM	–
Cc1sc2ncnc(SCC(=O)N3CCOCC3)c2c1C	–	inactive: 4.54%
COc1ccc(C(=O)NCCc2nnc3ccc(SCC(=O)NCCc4ccc(OC)c(OC)c4)nn23)cc1	–	inactive: 1.21%
Cc1cc(C(=O)NCc2cc(C)n(C)n2)sc1-c1ccccc1	inconclusive: 32.6 µM [activator, partial curve, poor fit]	–
COc1ccc(C(=O)N2N=C(c3cccc(OC)c3)CC2(O)C(F)(F)F)cc1 (centres undefined)	–	inactive: -1.61%
CN(C)c1ccc(/C=C2\CCC/C(=C\c3ccccc3)C2=O)cc1	inconclusive: 20.6 µM [activator, partial curve, poor fit]	–
Cc1ccccc1OCCNC(=O)c1ccc2ccccc2n1	active: 20.6 µM	–
O=C(NNC(=O)c1ccccc1O)c1ccc(Cl)c(S(=O)(=O)N2CCc3ccccc32)c1	inconclusive: 20.6 µM [activator, single point]	–
CCSc1nnc2c(Cl)cc(Cl)cn12	–	inactive: 4.77%
COc1ccc(Nc2nnc(SCC(=O)NC(=O)Nc3ccc4c(c3)OCCO4)s2)cc1	inconclusive: 25.9 µM [activator, single point]	–
COc1cccc(/C(N)=N/OC(=O)Cc2ccccc2[N+](=O)[O-])c1	inconclusive: 16.4 µM [activator, partial curve, poor fit]	–
CC(C)CNC(=O)c1cc(-c2ccc(Br)cc2)on1	inconclusive: 5.17 µM [activator, full curve]	–
C=CCn1c(=O)c2c3c(sc2n2c(Nc4ccc(C(=O)OCC)cc4)nnc12)CCCC3	–	inactive: 1.87%
CCCCCCC(=O)N(O)C1CC(=O)N(Cc2ccccc2)C1=O (centres undefined)	inconclusive: 29.1 µM [activator, partial curve, poor fit]	–
COc1ccccc1NC(=O)COC(=O)c1ccccc1OCC(=O)Nc1ccc(SC(F)F)cc1	inconclusive: 23.1 µM [activator, partial curve, poor fit]	–
COc1cccc(N/C(N)=N/c2nc(CSc3ccccn3)cc(=O)[nH]2)c1	inconclusive: 5.8 µM [activator, partial curve, poor fit]	–
Nc1ccc(Nc2nc(-c3ccncc3)cs2)cc1	inconclusive: 5.8 µM [activator, full curve]	–
COc1cccc(-c2nc(CS(=O)(=O)c3ccccc3)no2)c1	inconclusive: 14.6 µM [activator, partial curve, poor fit]	–
Cc1nn2cc(-c3ncc(C(F)(F)F)cc3Cl)cnc2c1Br	inconclusive: 0.517 µM [activator, full curve]	–
O=C(Nc1nc(-c2ccc3c(c2)OCCO3)cs1)C1CCCC1	inconclusive: 5.8 µM [activator, partial curve]	–

SMILES	Potency	activity change, positive = activation
CCc1cc(C(=O)Nc2ccccc2)cs1	inconclusive: 5.17 µM [activator, partial curve]	–
Nc1ncnc2c1ncn2C1OC(C(=O)NC2CC2)C(O)C1O (centres undefined)	inconclusive: 0.82 µM [activator, partial curve, poor fit]	–
CC(C)c1ccc(-c2nnn(CCC#N)n2)cc1	inconclusive: 23.1 µM [activator, partial curve, poor fit]	–
COc1cc(C(F)(F)F)nc2c(Br)c(C(C)(C)C)nn12	inconclusive: 6.51 µM [activator, partial curve, poor fit]	–
Clc1ccc(-c2noc(CCCc3ccccc3)n2)cc1	inconclusive: 25.9 µM [activator, partial curve, poor fit]	–
COC(=O)c1cc(C(=O)OCC(=O)Nc2ccc(N3CCOCC3)cc2)cc([N+](=O)[O-])c1	–	inactive: 3.76%
COc1cc(/C=C2\CCc3ccccc3C2=O)cc(OC)c1OC	–	inactive: 0.281%
CC(=O)OCC1(C)CN(c2ccccc2)N(C(=O)c2ccc(F)cc2)C1=O (centres undefined)	–	inactive: 0.215%
OCCC1CN(CC(c2ccccc2)c2ccccc2)CCN1C1CCCC1 (centres undefined)	–	inactive: -0.838%
CN1/C(=C\C(=O)c2cccnc2)Sc2ccccc21	inconclusive: 8.2 µM [activator, partial curve]	–
CCCCOc1ccc(-c2nnc(-c3ccncc3)o2)cc1	inconclusive: 4.61 µM [activator, partial curve]	–
CC(C)(C)c1ccc(C(=O)NC(=S)Nc2ccc(N3CCOCC3)cc2)cc1	–	inactive: 11.2%
Cc1ccc2nc(-c3ccc(-c4ccccn4)s3)cn2c1	active: 1.64 µM	–
CCOc1ccc(-c2nnc(N(CC)C(=O)C3CCC3)s2)cc1	inconclusive: 10.3 µM [activator, partial curve, poor fit]	–
Cc1ccccc1NC(=O)COC(=O)c1ccc(S(C)(=O)=O)c([N+](=O)[O-])c1	inconclusive: 25.9 µM [activator, single point]	–
O=C(CC1CCCCC1)NCc1ccc(F)cc1	inconclusive: 20.6 µM [activator, partial curve, poor fit]	–
COc1ccccc1N1CCN(/N=C/c2ccc(O)c(O)c2)CC1	inconclusive: 20.6 µM [activator, single point]	–
CC(C)(C)N1CCC1CN (centres undefined)	–	inactive: -0.19%
C/C(=N\NC(=O)c1sccc1C)c1ccncc1	active: 10.3 µM	–
CCOc1ccc(CCNC(=O)c2nnn(CC(=O)Nc3ccccc3C)c2N)cc1OCC	–	inactive: -1.93%
CCC(C)c1ccccc1NC(=O)c1cc2cccc([N+](=O)[O-])c2[nH]1 (centres undefined)	–	inactive: -9.99%
Cc1ccc(C(=O)NC2CCCC2)s1	inconclusive: 25.9 µM [activator, partial curve, poor fit]	–
Cc1ncsc1C(=O)Nc1nc2c(s1)CC(C)CC2 (centres undefined)	active: 2.06 µM	–
Cc1ccc(-c2nc(-c3ccccc3)no2)cc1	active: 0.651 µM	–
